Test results as given in article PMC12136788.
Some of the results follow.

B1: chr4:138171112:138171219:-|3pUTR|ENSG00000151012|msi1|total|mutant (ssRNA)
RNA: GGGAGUUCUACAGUCCGACGAUCUUUUUUUUUUUCACAUCAGUUUGAUCAGGAAAGUGUAUAACACAUCUCCGAGCAAGAGUCCGUUUGGUAUUAAAUCCUCAUCCGAACAACCACCUGUUUCACUAAUAACUUACCCCUGAUCAACAGAGGAUUGAGCAUCA
B2: chr10:43183422:43183523:+|CDS|ENSG00000169826|msi1|FALSE|bound_elsewhere (ssRNA)
RNA: GGGAGUUCUACAGUCCGACGAUCUAAAGCCAUGAAUGAGGCCUCUCACUCCCACCUGGGAAUGCUGGUCUUCAGGGAGGAAAUAGAGACGCAUCUUCAUAAACAGGCAUACAGGACAAACAGUGAAGCUGUUGGUUGAAAUCACAACAGAGGAUUGAGCAUCA
B3: chr11:118373572:118373686:+|CDS|ENSG00000110344|unk|FALSE|bound_elsewhere (ssRNA)
RNA: GGGAGUUCUACAGUCCGACGAUCGAAGACCUUGCUGGGAGUAAUUCUGAGUAUCUCCUGCUUAUUAAAGACUCCGGGUGUUGUAGAAAAUCAUGGCUACUUUUUGAAUCCAUCUCGUUCCAGCCCCCAGGAGAUCAAAGUACACAACAGAGGAUUGAGCAUCA
B4: ENSG00000107863:be:win_3851|CDS|ENSG00000107863|bound_else_gene|NA|bound_elsewhere_windowed (ssRNA)
RNA: GGGAGUUCUACAGUCCGACGAUCUGGCAGAAAAUUCAGAAAAAAAUAAGAUGGAACCAAGAAACCUAGCAAUAGUGUUUGGUCCCACCCUUGUUCGAACAUCAGAAGACAACAUGACCCACAUGGUCACCCACAUGCCUGACCCAACAGAGGAUUGAGCAUCA
B5: chr15:22866942:22867043:+|3pUTR|ENSG00000140157|msi1|total|mutant (ssRNA)
RNA: GGGAGUUCUACAGUCCGACGAUCUAAAGAUUUCACUAAUUUGGACCAAGAAAUUACUUUUCUUGUAUUUAAACAAACAAUGGCCGCUCACUAAAAUGACCUCAGCACAUGACGAUUUCUAUUAACAUUUUAUUGUUGCCGAAGCAACAGAGGAUUGAGCAUCA
B6: chr8:27776916:27777017:+|CDS|ENSG00000171320|unk|total|mutant (ssRNA)
RNA: GGGAGUUCUACAGUCCGACGAUCAAACCACAAGUUACACUCCAGGGUGGAGCAGCAUUUUUUGUCCGAAAAAAAUCUUCUCUCCGAAAAUCGUCCCUGGAAAAUGAGCCGUCACUGGGACGCACCCAAAAGAGUAAAUCAGAACAACAGAGGAUUGAGCAUCA
B7: chr16:57472207:57472321:-|3pUTR|ENSG00000125170|unk|total|mutant (ssRNA)
RNA: GGGAGUUCUACAGUCCGACGAUCUCAAACUUUUGGUUGUGUGGGGUUUUUUGUUGUUUUUUGGGUUUUGUUUUUUAAUACUUCCGGGUCCUGAUUUGUGGGAACAGACCUUCUUGUAAAUAACCACUAUUUGAGUUGUGGCAGCAACAGAGGAUUGAGCAUCA
B8: chr1:248850005:248850516:-|three_prime_utr|ENSG00000171163|control|control|control (ssRNA)
RNA: GGGAGUUCUACAGUCCGACGAUCUUCCCCUGUGAAUUCUGCGGCAAGCGCUUUGAGAAGCCAGACAGUGUUGCAGCCCACCGUAGCAAAAGUCACCCAGCCCUGCUUCUAGCCCCUCAAGAGUCACCCAGUGGUCCCCUAGAGCAACAGAGGAUUGAGCAUCA
B9: chr1:112701350:112701454:-|3pUTR|ENSG00000155366|unk|total|mutant (ssRNA)
RNA: GGGAGUUCUACAGUCCGACGAUCGGCUCCAUGCUGAAGGCUCCCAUUUUCAGUUCCCUCCUGCCCAGGACUGCAUUGUUUUCCCGCCCCGAGGUGGUGGCACGGGCCCUCCCUCCCAGCGCUCUGGGAGCCACGCCUAUGCCCCAACAGAGGAUUGAGCAUCA
B10: chr12:39553730:39553837:-|3pUTR|ENSG00000173208|unk|FALSE|unique (ssRNA)
RNA: GGGAGUUCUACAGUCCGACGAUCGAAGUAUGUUAAGCUAAGCACAGAGAAAAAAAGGCAGCAAGACAUGUUUUAUAAGAUUUUAGCAUUAAGGAAGUAUAUGAUCUGACUUUUCAGAAGAAAAUAAACAAAUGCAUUAUGUAACAACAGAGGAUUGAGCAUCA
B11: chr11:18933498:18933815:-|three_prime_utr|ENSG00000170255|control|control|control (ssRNA)
RNA: GGGAGUUCUACAGUCCGACGAUCAGACAGGACUUUGAGAGCAACACUGCCCUGCCACCCUUGACAAUUAUAUGCGUUUUUCUUAGCCUUCUGCCUCAGAAAUGUCUCAGUGGUUCCUCAAGGUCUUCAAAUAGAUGUUUAUCUCAACAGAGGAUUGAGCAUCA
B12: chr1:19339193:19339294:-|3pUTR|ENSG00000077549|msi1|total|mutant (ssRNA)
RNA: GGGAGUUCUACAGUCCGACGAUCGAGACCGUGUGGUUUUUGUUCACCCGGGCCCCCCGUCUUCCUCCCUGUCCCCCCAUUUACCGGCAUAAAAUCCACUGUCUGCCAGCCUCCCUUCCCUCCCACCUUUUUGGUACAUUGGUGCAACAGAGGAUUGAGCAUCA
B13: chr7:32869766:32869881:-|CDS|ENSG00000170852|unk|FALSE|bound_elsewhere (ssRNA)
RNA: GGGAGUUCUACAGUCCGACGAUCAUGUACUGUUAUUUUCCAAGGUCUGACUCAUGGGUAGAAAUGGCCAUGAGACAGACUAGUAGGUCCUUUGCUUCAGCUGCAGCUUUUGGUGAUAAAAUUUUCUAUAUUGGAGGGUUGCAUCAACAGAGGAUUGAGCAUCA
B14: ENSG00000107863:be:win_6301|3pUTR|ENSG00000107863|bound_else_gene|NA|bound_elsewhere_windowed (ssRNA)
RNA: GGGAGUUCUACAGUCCGACGAUCAUUGGUAACAGAUAUCAUUACAUUUACCAGUUUUAACACAGGUGGAUACAGAACUUCCAUUCUUUAGUCAUUCCAGGUGGAUCUGAGUUUUAUAUUCAAACUUUUAAUACAGUUUUUGAGCAACAGAGGAUUGAGCAUCA

These binders were tested against MSI1 full-length (mouse, UniProt Q61474 1-362) (assay: nsRBNS (natural sequence RNA bind-n-seq); RBNS binding buffer (assumed for nsRBNS): 25 mM Tris pH 7.5, 150 mM KCl, 3 mM MgCl2, 0.01% Triton X-100, 500 ug/ml BSA, 20 U/ml SUPERase-In, 4 C; UNK is unkempt and MSI1 is Musashi-1; names of the RNAs are library labels; protein concentration not given here; high values mean tight binding).
Sequence of UniProt Q61474 (Q61474 whole entry): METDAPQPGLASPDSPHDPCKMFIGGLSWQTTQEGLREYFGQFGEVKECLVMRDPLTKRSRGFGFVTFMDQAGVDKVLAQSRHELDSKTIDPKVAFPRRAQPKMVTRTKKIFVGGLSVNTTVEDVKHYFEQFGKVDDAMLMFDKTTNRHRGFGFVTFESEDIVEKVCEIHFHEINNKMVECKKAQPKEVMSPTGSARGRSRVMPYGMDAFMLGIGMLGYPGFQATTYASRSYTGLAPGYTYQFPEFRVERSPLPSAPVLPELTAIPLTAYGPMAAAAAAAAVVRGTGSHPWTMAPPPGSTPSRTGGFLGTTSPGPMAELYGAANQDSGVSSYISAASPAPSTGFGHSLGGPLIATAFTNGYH

Row | Binder | binding signal
1 | B1 | 0.7 enrichment R
2 | B2 | 0.394 enrichment R
3 | B3 | 0.385 enrichment R
4 | B4 | 0.286 enrichment R
5 | B5 | 0.385 enrichment R
6 | B6 | 0.313 enrichment R
7 | B7 | 0.464 enrichment R
8 | B8 | 0.938 enrichment R
9 | B9 | 0.602 enrichment R
10 | B10 | 2.43 enrichment R
11 | B11 | 0.839 enrichment R
12 | B12 | 1.07 enrichment R
13 | B13 | 0.456 enrichment R
14 | B14 | 2.33 enrichment R
